# Data as given in PubChem BioAssay AID463173 (ICCB-Longwood Screening Facility, Harvard Medical School, 2010).
# The campaign covered roughly 52,000 compounds. About 4,300 (8.3%) were called active. No stated cut-off is given here; in the data, active means survival mostly below about 52% (no sharp cut-off); inactive means mostly above about 56%. Some of the results follow.
# System: DeltatarO mutant
# Assay: growth inhibition of S. aureus wild type versus tarO mutant, primary screen, teichoic acid synthesis inhibitors, RN4220, OD600 (AID 463173)
# Conditions: OD600, 18 h, stronger effect = lower value, screened at 18.75 µg/mL (by protocol)
row,Compound,survival
1,COc1ccc(S(=O)(=O)c2cnc3cc(OC)c(OC)cc3c2N2CCCC(C)C2)cc1 (stereo not given),inactive: 116%
2,O=C(O)c1ccc(Cn2cnc3cccnc32)cc1,inactive: 61%
3,CC1CCN(CC2CCN(C(=O)NCc3ccc(F)cc3)CC2)CC1,inactive: 75%
4,COc1ccc(Cn2c(CO)cnc2SCC(=O)Nc2ccc3c(c2)OCCO3)cc1,inactive: 88%
5,COc1cccc(COC(=O)c2ccc(-c3nnn(Cc4cccc(OC)c4)n3)cc2)c1,inactive: 67%
6,O=C(O)Cn1c(-c2cccs2)cc2cc(Cl)ccc21,inactive: 75%
7,O=C(Nc1cccc(C(F)(F)F)c1)c1cc(-c2ccc(Cl)s2)nc2ccccc12,inactive: 66%
8,CCOc1ccc(NC2SC(=O)N(Cc3ccccc3)C2=O)cc1 (stereo not given),active: 42%
9,COc1cccc(NC(=O)NCCCNc2nc3cc(C)cc(C)c3cc2C#N)c1,inactive: 59%
10,COc1ccc(S(=O)(=O)NCc2cccs2)cc1C(C)(C)C,inactive: 77%
11,CCOc1ccccc1NC(=O)C(CC(C)C)NC(=O)C1CCC(C)CC1 (stereo not given),inactive: 105%
12,COc1cccc2c1cc1c(=O)n(CC(=O)N3CCN(c4cccc(C(F)(F)F)c4)CC3)nc(C)n12,inactive: 79%
13,CCCCN(CC)C(=O)CSc1nc2n[nH]c(C)c2c(=N)n1-c1cccc(C)c1,inactive: 88%
14,COc1ccc(-n2nc3ccc(NC(=O)c4ccc(C#N)cc4F)cc3n2)cc1Cl,inactive: 66%
15,O=C(COc1ccccc1Cl)Nc1nnc(S(=O)(=O)N2CCCC2)s1,active: 39%
16,Cc1ccc(NC(=O)CCc2c(C)nn(-c3ccc(N4CCOCC4)nn3)c2C)c(C)c1,inactive: 69%
17,CCn1c(C(=O)NCc2ccccc2OC)cc2sccc21,inactive: 99%
18,CCOc1ccccc1CNC(=O)C1CCN(S(=O)(=O)c2c(C)noc2/C=C/c2ccccc2F)CC1,inactive: 90%
19,CC1=C(c2ccc(C(C)C)cc2)S(=O)(=O)N=C1N1CCC(C(=O)NCc2ccccc2)CC1,active: -1%
20,COc1ccc(CC(=O)Nc2cc(-c3cn4cccnc4n3)ccc2C)cc1OC,inactive: 77%
21,COc1ccc(-n2ccnc(NCc3cccs3)c2=O)cc1OC,inactive: 85%
22,Cn1c(-n2cccc2)c(-c2c(-c3ccc(F)cc3)[nH]c3c2c(=O)n(C)c(=O)n3C)c(=O)n(C)c1=O,inactive: 63%
23,COCCCNC(=O)Cn1nc(N2CCN(c3ccccc3)CC2)ccc1=O,inactive: 91%

row,Compound,survival
1,CCCSc1oc(-c2ccco2)nc1S(=O)(=O)c1ccc(Br)cc1,inactive: 55%
2,COCCn1ccc2c(OCC(=O)Nc3c(C)cc(C)cc3C)cccc2c1=O,inactive: 63%
3,Cc1ccc(S(=O)(=O)n2nc(-c3ccc(Cl)cc3)nc2NCc2ccccc2)cc1,inactive: 102%
4,O=c1[nH]c2ccc(S(=O)(=O)NC3CCCCC3)cc2[nH]1,active: 62%
5,CC1CCc2c(sc3nnn(Cc4cccc(C(=O)OC(C)C)c4)c(=O)c23)C1 (stereo not given),inactive: 78%
6,CC(=O)N1CCc2c(sc3c2c(=O)n(-c2ccc(F)cc2)c(=O)n3Cc2ccc(C#N)cc2)C1,inactive: 107%
7,COc1ccc(OC)c(N(CC(=O)N2CCN(c3ccccc3F)CC2)S(C)(=O)=O)c1,inactive: 78%
8,Cc1cc(C)cc(-n2ccnc(NCCc3ccccc3)c2=O)c1,inactive: 101%
9,COC(CN(C)S(=O)(=O)c1ccc(Br)cc1)OC,inactive: 80%
10,CCOC(=O)c1cc2c(=O)n3ccccc3nc2n(CC(C)C)c1=NC(=O)COc1ccc(Cl)cc1,inactive: 136%
11,COc1ccc(-c2nc(CS(=O)CC(=O)NCCc3ccccc3)c(C)o2)cc1OC (stereo not given),inactive: 91%
12,CC1CCCCN1c1c(S(=O)(=O)c2ccc(Cl)cc2)cnc2ccccc12 (stereo not given),inactive: 102%
13,Cc1ccc(CCNC(=O)c2sc3ncccc3c2-n2c(C)ccc2C)cc1,inactive: 64%
14,CCC(=O)Nc1ccc(CC)cc1-c1nc2ccccc2n(CC(=O)Nc2cccc(OC)c2)c1=O,inactive: 67%
15,Cc1ccccc1NC(=O)c1c(NC(=O)c2ccccc2)sc2c1CCC2,inactive: 126%
16,COc1ccc(-c2cn3nc(N4CCC(C(=O)Nc5ccccc5OC)CC4)sc3n2)cc1,inactive: 68%
17,Fc1cccc(-c2cc3nc4c(c(NCCCN5CCOCC5)n3n2)CCCC4)c1,inactive: 100%
18,CCN(CC)C(=O)c1sc2c(c1C)c(=O)n(-c1ccccc1)c(=O)n2Cc1c(C)cc(C)cc1C,inactive: 79%
19,Cn1c(SCC(=O)NC(C)(C)C)nc2cccnc21,inactive: 80%
20,CCOc1ccc(NC(=O)CC2C(=O)N(c3ccccc3)C(=O)N2CCc2cccs2)cc1 (stereo not given),inactive: 54%
21,Cc1ccc(Cl)cc1-n1nnc(-c2nsc(NC(=O)c3ccccc3Cl)n2)c1C,active: 6%
22,COc1ccc(OC)c(NC(=O)CCCc2nnc3n(C(C)C)c(=O)c4sccc4n23)c1,inactive: 74%
23,Cc1ccc(C)c(N2CCN(C(=O)c3cnn(C(C)(C)C)c3C3CCN(C(=O)OC(C)(C)C)CC3)CC2)c1,inactive: 91%

row,Compound,survival
1,Cc1ccc2oc(C(=O)Nc3ccc(S(=O)(=O)N4CCCC(C)C4)cc3)cc(=O)c2c1 (stereo not given),inactive: 69%
2,CCc1ccc(-n2c(=O)c3ccccc3n(CC(=O)NCCc3ccc(OC)c(OC)c3)c2=O)cc1,inactive: 91%
3,COc1ccc(Cl)cc1NC(=O)NCCn1c(=O)oc2ccc(C)cc21,active: 46%
4,COc1ccc(C)cc1NC(=O)N1CCC(CN2CCOCC2)CC1,inactive: 71%
5,Cc1ccc(N(CC(=O)N2CCN(c3cccc(Cl)c3)CC2)S(=O)(=O)c2c(C)noc2C)cc1,inactive: 73%
6,COc1ccc(NC(=O)C(Cc2c[nH]c3ccccc23)NC(=O)OC(C)(C)C)cc1 (stereo not given),inactive: 48%
7,Cc1ccn2c(Nc3c(C)cccc3C)c(-c3ccsc3)nc2c1,active: 35%
8,COc1ccc(N2CC(NC(=O)c3cccs3)CC2=O)cc1 (stereo not given),inactive: 89%
9,N#Cc1c[nH]n2c(=O)cc(Cc3ccccc3)nc12,inactive: 68%
10,O=C(CSc1nc(=O)[nH]c2c1CCCC2)Nc1ccc(Cl)c(Cl)c1,inactive: 99%
11,CC1(C)Cc2c(ccc3ccccc23)CN1,inactive: 108%
12,CCN(CC)CC(=O)Nc1sc2c(c1C#N)CCCC2,inactive: 76%
13,COC(=O)/C(C#N)=C/c1ccc(C)s1,inactive: 69%
14,CC(C)C(NS(=O)(=O)c1ccc2c(c1)oc(=O)n2C)C(=O)N1CCN(c2cccc(Cl)c2)CC1 (stereo not given),inactive: 101%
15,CCN(CC)C(=O)c1ccc2c(c1)N(Cc1c(F)cccc1Cl)C(=O)c1ccccc1S2,inactive: 73%
16,COc1ccc(CNC(=O)c2nc(SCc3ccc(C)cc3)ncc2Cl)cc1,inactive: 67%
17,CCc1nnc(NC(=O)CSc2nccn2Cc2ccc(C)cc2)s1,inactive: 78%
18,COc1ccccc1NC(=O)CSc1nc(O)c(C/C=C/c2ccccc2)c(=O)[nH]1,inactive: 89%
19,COc1ccc(Cn2c(=O)n(-c3ccc(F)c(Cl)c3)c(=O)c3c2c2cc(OC)ccc2n3C)cc1,inactive: 86%
20,CCOC(=O)c1c(S(=O)(=O)N2CCC(C(=O)NCc3cccc(C)c3)CC2)c(C)n(C)c1C,inactive: 94%
21,O=C(O)CCC(=O)Nc1ccc2c(c1)oc1ccccc12,inactive: 86%
22,CCOc1cccc2sc(N3CCN(C(=O)c4ccc5c(c4)CCCC5)CC3)nc12,inactive: 60%
23,Cc1cc(N2CCN(C)CC2)nc2ccc(NC(=O)c3ccc(C(C)(C)C)cc3)cc12,active: -3%

row,Compound,survival
1,CCN(CC)S(=O)(=O)c1ccc(NC(=O)c2cc3ccc4cccnc4c3[nH]2)cc1,inactive: 89%
2,CN(Cc1ccccc1)c1nnc(NC(=O)Nc2cccc(Br)c2)s1,inactive: 97%
3,Cc1ccc(-n2nc(C(=O)Nc3ccc(F)cc3Cl)c(=O)n(C)c2=O)cc1,inactive: 69%
4,Cc1ccc(C(=O)n2nc(C)c(S(=O)(=O)N3CCCCCC3)c2C)cc1C,inactive: 61%
5,CCC(C)N1CCN(C2CCCCC2)CC1 (stereo not given),inactive: 81%
6,COc1ccccc1-c1cc(C(F)(F)F)nc(S(=O)(=O)CCCC(=O)Nc2cc(Br)ccc2O)n1,active: 45%
7,O=C(NCCc1ccccc1)C(=O)NCC(c1cccnc1)N1CCN(c2ccc(F)cc2)CC1 (stereo not given),inactive: 103%
8,CCC(=O)N1CCc2cc(CNC(=O)Nc3ccc(OC)cc3OC)ccc21,inactive: 71%
9,O=C(NC1CCCC1)C(c1ccccc1)N(C(=O)c1ccco1)C1CCCC1 (stereo not given),inactive: 79%
10,CC(=O)c1ccc(NC(=O)Cn2c3ncccc3c(=O)n2-c2ccc(C)cc2)cc1,inactive: 112%
11,COc1ccc(NC(=O)c2cnc(SCC(=O)Nc3nc4ccc(C)cc4s3)n(C)c2=O)cc1,inactive: 74%
12,CCc1ccc(C2C(C(=O)Nc3ccccc3)=C(C)Nc3nc(SCC(=O)c4ccc(C)cc4)nn32)cc1 (stereo not given),inactive: 55%
13,CC(C)C(=O)N(C)c1nnc(-c2ccc(F)cc2)s1,inactive: 108%
14,O=C(c1ccco1)c1cn(CCOc2ccc(Cl)cc2)c2ccccc12,inactive: 78%
15,Cc1ccc(-c2noc(CSc3nnc(-c4ccc(Cl)cc4)n3C)n2)cc1,inactive: 72%
16,Cc1ccc(S(=O)(=O)NCc2cccnc2)cc1,inactive: 73%
17,O=C(c1cccs1)N1CCCc2cc(NS(=O)(=O)c3ccc(Cl)cc3)ccc21,inactive: 93%
18,COc1ccc(C(CNC(=O)c2ccc(C)cc2)N2CCOCC2)cc1 (stereo not given),inactive: 82%
19,CCN(CC)C(=O)c1sc(NC(=O)C2c3ccccc3Oc3ccccc32)c(C(=O)OC(C)C)c1C,active: 30%
20,c1ccc2oc(CCc3nc4ccccc4o3)nc2c1,inactive: 88%
21,CN(C)c1ccc(C(CNS(=O)(=O)c2cc(F)ccc2F)N2CCOCC2)cc1 (stereo not given),inactive: 117%
